# From PubChem BioAssay AID686979 (National Center for Advancing Translational Sciences (NCATS), 2013)
# Where “and” joins values, the source holds several entries; their conditions need not be identical. Equal values may be shown once. The campaign covered roughly 420,000 compounds. About 50,000 (12%) were called active. Inconclusive results, whose numbers are uncertain, are shown with a selection of clear calls. The call rests on the fitted dose curve; in most records, active means well fitted inhibition curve with a large enough effect; inconclusive means small, poorly fitted or top-dose-only effect; inactive means flat fitted curve, though single readings scatter. Where the call is inconclusive, the potency comes from a doubtful curve fit.
# Experiment: qHTS for Inhibitors of human tyrosyl-DNA phosphodiesterase 1 (TDP1): qHTS in cells in presence of CPT; further: nearly all actives have a fitted effect of over 55% in size
# Details: chicken DT40 Tdp1-/-;hTDP1 cells + 20 nM CPT, ATP luminescence, 48 h; activity change, negative = growth inhibition: at 46.2 µM (top of the series) unless noted
# Procedure, shortened: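 Chicken DT40 Tdp1-/- cells complemented with human TDP1, 400 cells/well, exposed to compounds plus 20 nM camptothecin for at least 48 h at 37 C; viability read as ATP content by CellTiter-Glo luminescence.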
# On the % scale 0 is the no-effect control and ±100 the full control effect; potency means the concentration at half of the fitted maximal effect; tags describe the fitted curve by direction and shape.
SMILES,Potency,"activity change, negative = growth inhibition"
COc1ccc(CN2CCCC(N3CCc4ccccc4C3)C2)c(O)c1 (stereo unspecified),"inconclusive: 18.4 µM [inhibitor, single point]",
O=c1oc2ccccc2cc1-c1nnc(NCc2ccco2)s1,"inconclusive: 29.1 µM [inhibitor, single point]",
Cc1ccc(S(=O)(=O)N2CCN(C(=O)CSc3nnc(-c4ccco4)o3)CC2)cc1,"inconclusive: 25.9 µM [inhibitor, single point]",
CCOC(=O)c1n[nH]n2c1nc(=S)c1ccccc12,,inactive: -14.1%
N#C/C(=C\c1cccnc1)c1nc2ccccc2[nH]1,"inconclusive: 2.59 µM [inhibitor, full curve]",
CC(C)=CCOc1cc2oc(=O)ccc2cc1O,"inconclusive: 32.6 µM [inhibitor, single point]",
Oc1ccc(-c2cc(-c3ccc(O)cc3)nc(-c3ccccc3)n2)cc1,"inconclusive: 23.1 µM [inhibitor, single point]",
CCOC(=O)c1ccc(N=C2SC(C(=O)NC)CC(=O)N2CCc2ccccc2)cc1 (stereo unspecified),"inconclusive: 20.6 µM [inhibitor, single point]",
CC(C)(C)c1ccc(C(=O)NCCCN2CCN(CCCNC(=O)c3ccc(C(C)(C)C)cc3)CC2)cc1,active: 9.2 µM,
COc1cc(/C=C2/C(=O)N(c3ccc(Br)cc3)N=C2C)cc(OC)c1OC,"inconclusive: 11.6 µM [inhibitor, partial curve]",
Cc1ccc(NC(=O)C2CCN(S(=O)(=O)c3cc([N+](=O)[O-])ccc3Cl)CC2)nc1,active: 16.4 µM,
COc1cc(CN2CCC3(CCC(CNC(=O)c4ccccc4)O3)CC2)cc(OC)c1 (stereo unspecified),active: 10.3 µM,
CCOC(=O)/C(C#N)=C/c1c(N2CCN(c3cccc(Cl)c3)CC2)nc2c(C)cccn2c1=O,"inconclusive: 29.1 µM [inhibitor, single point]",
COc1ccccc1CNS(=O)(=O)c1cc(Br)cc2c1N(C(=O)C1CC1)CC2,"inconclusive: 16.4 µM [inhibitor, single point]",
CC1=CCCC(C)(C)C1/C=C/C(C)=N/NC(=O)c1ccncc1 (stereo unspecified),"inconclusive: 25.9 µM [inhibitor, single point]",
CC(=O)c1ccc(N(CC(=O)Nc2cc(C)on2)S(=O)(=O)c2ccc(C)cc2)cc1,,inactive: -16.2%
Cc1cccc(C)c1NC(=O)C(c1ccccc1)N1CCC(Cc2ccccc2)CC1 (stereo unspecified),active: 9.2 µM,
COc1ccc(CNC(=O)c2ccc3c(c2)N(Cc2cc(C)ccc2C)C(=O)CS3)cc1,"inconclusive: 25.9 µM [inhibitor, single point]",
O=C(Cn1nc(-c2ccccc2)ccc1=O)NCCN1CCN(c2cccc(Cl)c2)CC1,"inconclusive: 29.1 µM [inhibitor, single point]",
CC1CCCCN1S(=O)(=O)c1ccc(N(C(=O)c2cnccn2)C(C(=O)NC2CCCCC2)c2cccs2)cc1 (stereo unspecified),"inconclusive: 18.4 µM [inhibitor, single point]",
Cc1cc(N2CCOCC2)nc(N2CCOCC2)n1,,inactive: -1.99%
CCN(CC)CC(=O)N1CCCC(N2CCN(c3cccc(C(F)(F)F)c3)CC2)C1 (stereo unspecified),"inconclusive: 18.4 µM [inhibitor, single point]",

SMILES,Potency,"activity change, negative = growth inhibition"
O=C(NCc1ccc(Cl)cc1)c1ccc(CSc2nc3ccncc3[nH]2)cc1,"inconclusive: 23.1 µM [inhibitor, single point]",
O=c1cc(COc2ccc(Cl)cc2Cl)nc2scc(-c3ccccc3)n12,,inactive: -4.08%
C=CCOC(=O)c1[nH]c2c(c1C)C(=O)CC(c1ccco1)C2 (stereo unspecified),active: 0.0206 µM,
Cc1ccc(C(=O)COC(=O)c2ccccc2N2C(=O)C3C4CCC(C4)C3C2=O)cc1C (stereo unspecified),"inconclusive: 18.4 µM [inhibitor, single point]",
O=c1nc(Nc2ccc(Br)cc2)sc2ccc([N+](=O)[O-])cc12,,inactive: -16.4%
CCOc1ccc(-n2c(=O)c3c(C)c(C)sc3n(CC(=O)C(C)(C)C)c2=O)cc1,"inconclusive: 25.9 µM [inhibitor, single point]",
COC(=O)N/N=C\c1ccccc1OC/C=C/c1ccccc1,"inconclusive: 29.1 µM [inhibitor, single point]",
Cc1ccc(C2C(=O)N(C3CCC(C)CC3)CC(=O)N2C2CCCC2)cc1 (stereo unspecified),"inconclusive: 25.9 µM [inhibitor, single point] and inconclusive: 23.1 µM [inhibitor, partial curve]",
Cc1ccc(C(=O)N/C(=C/c2ccc(-c3cc(C(F)(F)F)ccc3Cl)o2)C(=O)NCc2cccnc2)cc1,"inconclusive: 25.9 µM [inhibitor, single point]",
COc1ccc(-c2cc(C(=O)Nc3cc(Br)ccc3O)no2)cc1,"inconclusive: 16.4 µM [inhibitor, single point]",
CN1/C(=C\C(=O)Nc2cccc(Cl)c2)C(C)(C)c2ccccc21,"inconclusive: 23.1 µM [inhibitor, single point]",
CC1CCCCN1Cc1c(O)ccc2c(=O)c(-c3nc4ccccc4s3)c(N)oc12 (stereo unspecified),"inconclusive: 29.1 µM [inhibitor, single point]",
Cc1cc(C)c(OCCCCN2CCNCC2)c(C)c1,"inconclusive: 16.4 µM [inhibitor, partial curve]",
C=CCNC(=O)c1ccccc1NS(=O)(=O)c1ccc(SC)cc1,,inconclusive: -37.3% [inhibitor]
CCc1cccc(C)c1NC(=O)c1ccc2c(c1)CCN2S(=O)(=O)c1ccc(Cl)cc1,"inconclusive: 11.6 µM [inhibitor, partial curve]",
Cc1cccc(NC(=O)c2sc(-c3ccccc3)nc2-c2ccc([N+](=O)[O-])cc2)c1,"inconclusive: 29.1 µM [inhibitor, single point]",
CCOc1ccc(C2C(C#N)=C(N)SC(N)=C2C#N)c(OCC)c1,"inconclusive: 29.1 µM [inhibitor, single point]",
COc1ccccc1N1CCN(C(=O)COc2ccc(C)cc2Br)CC1,,inactive: -16%
COc1cc(C(=O)NCC(c2ccco2)S(=O)(=O)c2cccs2)cc(OC)c1OC (stereo unspecified),"inconclusive: 18.4 µM [inhibitor, single point]",
CC(=O)c1cccc(NC(=O)CCNS(=O)(=O)c2cccc3nonc23)c1,"inconclusive: 20.6 µM [inhibitor, single point]",
CC(=O)c1cccc(NC(=O)NCCc2ccc(Cl)cc2)c1,"inconclusive: 23.1 µM [inhibitor, single point]",
CC(=O)c1ccc(N2CCN(C(=O)c3cn(C)c(=O)c4c3c3ccccc3n4C)CC2)cc1,"inconclusive: 18.4 µM [inhibitor, single point]",

SMILES,Potency,"activity change, negative = growth inhibition"
O=C(NCc1ccccc1)c1ccc(NC(=O)C2CC2)cc1,,inactive: 0.52%
Cc1ccc(-n2c(=O)c3c(c4cc(C)ccc4n3C)n(CC(=O)Nc3ccc(F)cc3)c2=O)cc1,"inconclusive: 2.06 µM [inhibitor, full curve]",
Cc1ccc(S(=O)(=O)CC2CSc3nc4ccccc4n32)cc1 (stereo unspecified),active: 1.84 µM,
Cc1cc(C)cc(NC(=O)CCc2c(C)nc3nc(CNC(=O)c4cccc(F)c4)nn3c2C)c1,"inconclusive: 18.4 µM [inhibitor, single point]",
C/C(=N\NC(=O)c1ccn(C)n1)c1ccc(NC(=O)C2CCCC2)cc1,,inactive: -13.6%
Cc1csc(SCC(=O)Nc2cccc3nsnc23)n1,active: 7.31 µM,
Clc1cccc(Cl)c1CSc1nnc(-c2sccc2-n2cccc2)o1,"inconclusive: 20.6 µM [inhibitor, partial curve]",
CCCCC(=O)Nc1nnc(S(=O)(=O)N(C)Cc2ccc(Cl)cc2)s1,,inactive: -17.5%
COc1ccc(N(Cc2cccs2)C(=O)c2ccco2)cc1,active: 23.1 µM,
OCC1(Cc2ccccc2)CCN(C2CCN(c3ccccc3F)CC2)CC1,"inconclusive: 20.6 µM [inhibitor, single point]",
O=C(CSc1nc(C2CC2)nc2ccccc12)N1c2ccccc2Sc2ccccc21,"inconclusive: 29.1 µM [inhibitor, single point]",
CCN(CC)C(=O)CC(c1ccc(OC)cc1)c1c(O)cc(OC)cc1OC (stereo unspecified),,inconclusive: -30.3% [inhibitor]
COC(=O)c1[nH]c2cc(OC)ccc2c1NC(=O)CN1CCN(c2cccc(C)c2)C(C)C1 (stereo unspecified),"inconclusive: 23.1 µM [inhibitor, single point]",
Cc1cccc(CS(=O)(=O)c2nnc([C@H](Cc3ccccc3)NC(=O)OC(C)(C)C)o2)c1,active: 1.3 µM,
Cc1ccccc1COc1ccc(/C=N/NC(=O)c2nnn(-c3nonc3N)c2CN2CCC(C)CC2)cc1,active: 10.3 µM,
COCCN(C(=O)COC(=O)CCC(=O)c1ccc(Cl)cc1)c1c(N)n(Cc2ccccc2)c(=O)[nH]c1=O,,inactive: -8.58%
O=c1cc(-c2ccccc2)[nH]c2cc(Cl)ccc12,active: 0.461 µM,
CCOC(=O)c1c(NC(=O)CSc2nnc(-c3ccccc3)n2CC)sc(C(C)=O)c1C,"inconclusive: 29.1 µM [inhibitor, single point]",
O=C(NCC(c1ccco1)S(=O)(=O)c1cccs1)c1ccccc1 (stereo unspecified),"inconclusive: 20.6 µM [inhibitor, partial curve]",
COc1ccc(OC)c(S(=O)(=O)NCC(c2ccc(N(C)C)cc2)N2CCOCC2)c1 (stereo unspecified),,inactive: -21.9%
COc1ccc(NC(=O)Nc2ccc3c(c2)C(=O)N([C@H](C)CO)C[C@H](C)[C@@H](CN(C)S(=O)(=O)c2cccs2)O3)cc1,"inconclusive: 25.9 µM [inhibitor, single point]",
CCC(=O)Nc1cccc(NC(=S)NC(=O)c2cc3ccccc3o2)c1,"inconclusive: 25.9 µM [inhibitor, single point]",
